Assay results as given in US20220280543A1 (UNIVERSITY OF VIRGINIA PATENT FOUNDATION, published 2022).

Molecular target: the molecule itself
Test: homo-oligomerization, Tris-glycine native PAGE immunoblot, Alu RNA-treated mouse BMDM
Experimental: FIG. 4. Alu RNA (SEQ ID NO: 86) induced NLRC4 protein oligomerization. Mouse BMDM was treated with Alu RNA (SEQ ID NO: 86; 100 pmol) at the indicated time points. NLRC4 oligomers were detected by Tris-glycine native PAGE. Loading control show by Actin. […] The bands of oligomeric NLRC4 protein were indicated by black arrow.
The activated NLRC4 inflammasome undergoes oligomerization by assembling into high-molecular mass multiprotein complexes. We first investigated in situ assembling of NLRC4 and apoptosis speck (ASC) like protein complexes in response to SINE RNA treatment of BMDMs. Immunofluorescence studies show increased NLRC4 and ASC specks in SINE RNA-treated BMDMs compared to mock-treated cells (FIG. 3A). To assess NLRC4 inflammasome assembly, WT and NLRC4 KO BMDM cells were treated with Alu RNA (SEQ ID NO: 86). Disuccinimidyl suberate (DSS) cross-linked lysates were resolved using denaturing SDS-PAGE to detect ASC oligomers and cell lysates were resolved using native polyacrylamide gel electrophoresis (NATIVE-PAGE) to detect NLRC4 oligomerization. […] NLRC4/ASC oligomerization is essential for the cleavage of pro-caspase-1 into its active form p20 and IL-1β release.

B1: mouse NLR family CARD domain containing 4 (Nlrc4) (receptor)
chain: not shown
notes: Endogenous protein of mouse BMDM / iBMDM
- binding result: binds
